# Source: paper PMC12136788
# Some of the results follow.
# T1: UNK ZnF1-3 (human, UniProt Q9C0B0 31-174)
# T1 sequence: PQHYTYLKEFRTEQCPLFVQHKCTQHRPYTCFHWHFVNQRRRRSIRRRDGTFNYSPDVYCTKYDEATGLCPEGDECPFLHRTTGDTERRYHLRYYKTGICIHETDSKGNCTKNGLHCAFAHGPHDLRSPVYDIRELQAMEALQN
# B1: chr6:56729896:56729897:-_ENSMUSG00000059486_ENSMUST00000114323|mus_mus|motif|central (ssRNA)
# RNA: GGGAGUUCUACAGUCCGACGAUCCUUAUGCAAAUCAGCGGGUGGGCUGCAUAACUUGUAAACUUUUUCUGCCUGGGGGCGGUAACAGACAGAAGAGUAAAGACUACAAGGGUUUUCUGAGGAUGCUUCAAUGAAAAUCAUCAUCAACAGAGGAUUGAGCAUCA
# B2: 126174138_126174520_2540_CDS_ENSMUSG00000042500_ENSMUST00000084289|mouse|control|control (ssRNA)
# RNA: GGGAGUUCUACAGUCCGACGAUCAGUGAAGCAGUUGUCAUCCCACAAGACCUGGUAAUGUGAAGGACGGCUGGUUCCCUGAAUUCCUGCAUGACUACAGAGGUAAAAGUCAAACUCAGACGGGUGUGUGACGGUGCUAUCCACCAACAGAGGAUUGAGCAUCA
# B3: 83504460_83504580_1148_ncRNA_ENSMUSG00000027091_ENSMUST00000134789|mouse|control|control (ssRNA)
# RNA: GGGAGUUCUACAGUCCGACGAUCUCAGGCAGUCUCUAAAACAUAUAAAUACAAAGGAAAGGACACCACUCAUUAAAAACUGCAUCAAACGCAAGUGUCUUAAGUGUGAAUCUGUUGUUUCUGGAAAUUACACAUGCCCAAUGACAACAGAGGAUUGAGCAUCA
# B4: chr1:52977185:52977186:+_ENSMUSG00000041426_ENSMUST00000044478|mus_mus|FALSE|FALSE (ssRNA)
# RNA: GGGAGUUCUACAGUCCGACGAUCUUUGCUCCAAAAUAAACUUUAGAAUUUCAAAUCACUGCUUCCCAGAGAUUUAAAGUAACUAUUCAAGUCUUCAUCCGUAACAUCUUUUAGAUUGGCUGGUUUCCAUUUUGGAGUCUGGUCCAACAGAGGAUUGAGCAUCA
# B5: 80543914_80544034_1648_3pUTR_ENSG00000141568_ENST00000335255|human|control|control (ssRNA)
# RNA: GGGAGUUCUACAGUCCGACGAUCUAGGAGGGGCCAGCACGGCUGCCGGGGUGACCACAGCUUGUCCAGAGACAGUGUACGUGUUCGCUGGGGCCAGUCCGGCCACACUGGUGACCGACACCGCUGGGAUCUGGUGGACGACGUCAACAGAGGAUUGAGCAUCA
# B6: chr11:31900494:31900495:+_ENSMUSG00000020297_ENSMUST00000020537|mus_hu|FALSE|FALSE (ssRNA)
# RNA: GGGAGUUCUACAGUCCGACGAUCAGGAGGACGGCCAGGAGUCCUCCCUCCUCAGCCCGAGCUUGUGGUGCUGAAAGGACAGCGCCUCGCGUGUGUCUGGAUCGGAGCUUCUGAGAGCAGGCGUGAGCGAGCAGGGAAGAGCUCCAACAGAGGAUUGAGCAUCA
# B7: chr5:21408736:21408737:-_ENSMUSG00000042453_ENSMUST00000161356|mus_hu|mus_mus_mus_hu_False|28_28 (ssRNA)
# RNA: GGGAGUUCUACAGUCCGACGAUCGUUGACAGAGUUGUAGAUGGUGGCUUCAUGGAACUGGAAAGGGGAGCAGCCAAUGCUGUUAGAAGAGGAAGGAAGGCACUGGGUCUGCACGAGCUGCCAGGAAUCCGAUCUUGCAUCCUUCAACAGAGGAUUGAGCAUCA
# B8: chr7:149068622:149068623:-_ENSMUSG00000025139_ENSMUST00000001950|mus_hu|mus_mus_mus_hu_False|1_68 (ssRNA)
# RNA: GGGAGUUCUACAGUCCGACGAUCGUGAGGCCUCUGAGUGUGGCUUGUGGUCUGUCCUGGGUUAGAGCUGCUGGUAACACGGAACAUACCAUCUAGAACGUUCCAGUCCCGCCUGACACCUUCAUUCCCAAUGGAGAAUCUGCUCAACAGAGGAUUGAGCAUCA
# B9: chr12:54651456:54651457:-_ENSG00000094916_ENST00000209875|hu_hu|motif|central (ssRNA)
# RNA: GGGAGUUCUACAGUCCGACGAUCUGUCAGCUGUCCGCUUGGUUUUCUUUCCCAUGUCGCACACCGUUCCACCUGAAAGACGGAGGCCACCAGGUCCCCGGGAUUGAGAGUGAUCACUCACGCUAACGUCUGCCCUGUUCCUGUCAACAGAGGAUUGAGCAUCA
# B10: chr14:76904430:76904431:+_ENSMUSG00000022010_ENSMUST00000022587|mus_mus|mus_mus_mus_hu_True|28_98 (ssRNA)
# RNA: GGGAGUUCUACAGUCCGACGAUCUGCAGCCAAAAACAGAGAGAGGGAAAAAAAGAGGGAACACCAGCAGCCUUGUAUAAGCUAGAUAAAAUCUUCUGGCUUUCCGCAGCUCAGGGCGAAACAGAAAACGGCAGCCCUAAUUUACAACAGAGGAUUGAGCAUCA
# B11: chr4:95585729:95585730:+_ENSG00000163110_ENST00000317968|hu_mus|FALSE|FALSE (ssRNA)
# RNA: GGGAGUUCUACAGUCCGACGAUCAAAGGUAAGACCAAUGAUAAGAGCAAAGCAAGUACACUCACUAAACAGAAAAGUUACUGCCUACUCAUAAAAUUUAUUUAGAUUUCUACUUACUAUUUUAAAGAUAAAAUGGUUUUAUUACAACAGAGGAUUGAGCAUCA
# B12: chr4:123027775:123027776:-_ENSMUSG00000028649_ENSMUST00000154824|mus_mus|motif|central (ssRNA)
# RNA: GGGAGUUCUACAGUCCGACGAUCUUAUCUUGCUGAUAUAGCAAGUCAAGUUUAUAAAGAAGAUGCAUUUAGGAAUAAUCCGGAAAGAUAAAGCAGGUUUAUAACCCUGCACCACAUGAAACCCUAUUUAGAGGCUUUUCUUUUCAACAGAGGAUUGAGCAUCA
# B13: chr7:25763974:25763975:-_ENSMUSG00000040907_ENSMUST00000080882|mus_mus|FALSE|FALSE (ssRNA)
# RNA: GGGAGUUCUACAGUCCGACGAUCUUUCUCCACCCAACCCCCGGGGUUCCUGCGCAGGAUGAGUUUGCGAAUCUCAUCAUAGACGAAGAUGAGGAAACUGUAGGGGAAGGCACAGAACCACCAGCUGGGCUUGAGAGGGUACAUCAACAGAGGAUUGAGCAUCA
# B14: chr15:59323432:59323433:+_ENSG00000157450_ENST00000557998|hu_hu|FALSE|FALSE (ssRNA)
# RNA: GGGAGUUCUACAGUCCGACGAUCCACAGUAUCAGAAUCUCCAAAAUGCAGACUAGAUGAAGGAGAAGAAAGACAAUCACUAAAAGAGGAAUCAUUAUCUUCAUCACUUGGUGUCCCUAGGUGUUGCCUCAGUCCUAAUAUUCCCAACAGAGGAUUGAGCAUCA
# B15: chr8:104081237:104081238:+_ENSG00000155097_ENST00000518738|hu_hu|FALSE|FALSE (ssRNA)
# RNA: GGGAGUUCUACAGUCCGACGAUCAAUGGAAUUAAUGCAUACCAUGAUAUCAAUAAGGAAGAGACCUUCUCUUUAAAUAAACUAUUUUGUUUAUAAAUAAACUCUGAUUUUUUUAGUACACAUUUACAGACCUGAUCAAUAAAACAACAGAGGAUUGAGCAUCA
# B16: chr2:26507767:26507768:+_ENSG00000138029_ENST00000317799|hu_hu|FALSE|FALSE (ssRNA)
# RNA: GGGAGUUCUACAGUCCGACGAUCCUUGGUUUUUCUACCCAUGUAGUUUUCUGCAAACCAAUCAGAAUCCAUGGCUUUAAAAUUUGCCAAAAUCUGACCCGAGAAAGCUUCAUGAAAUUCAAAAGCAUCAAUAUCAUUCAUGGUCAACAGAGGAUUGAGCAUCA
# B17: chr14:31337589:31337590:+_ENSMUSG00000021962_ENSMUST00000022535|mus_hu|motif|central (ssRNA)
# RNA: GGGAGUUCUACAGUCCGACGAUCAAAUGACCUGUAUCAUAGAAACGAAGACACUUUCAUUCAAAGAAUAUCUUAAAAUUACGGUUGCUGAAAUAAAUCAAAAUCUACAUUAAAAUAUUACUAAACACCAUUACAUGCCAUAAACAACAGAGGAUUGAGCAUCA
# B18: 88154841_88154961_4418_3pUTR_ENSMUSG00000069769_ENSMUST00000107909|mouse|control|control (ssRNA)
# RNA: GGGAGUUCUACAGUCCGACGAUCUGCCAGGGAAGAGCCAUUAGCCAAGAGGGUUUCUCCCCCAGGGAAGGUCAGAGGAGGGGGUCCCACAUUCGCUAUUGAGCUUAACUGAAACAAAGACAAAGAUGGACACCAGUGCUGAAACAACAGAGGAUUGAGCAUCA
# B19: chr18:65375181:65375182:+_ENSMUSG00000024589_ENSMUST00000163516|mus_mus|FALSE|FALSE (ssRNA)
# RNA: GGGAGUUCUACAGUCCGACGAUCAAGUCCCUCCACAGUGAAGUAAGAGUCCUGGAACCCACUCUGCAGCCUCAAGGUAAAUGAUCCACAAUUAUUUGCAGGGCGACAGGAUGGUGUGAUCUCCACAGCUCAGAAGGAAACAGCCAACAGAGGAUUGAGCAUCA
# B20: chr6:136600977:136600978:-_ENSG00000029363_ENST00000527536|hu_mus|FALSE|FALSE (ssRNA)
# RNA: GGGAGUUCUACAGUCCGACGAUCCGAGACCUAGAACUGUAUCUCUUCUUUCUAGAAUGUGAUCUUGAUCUUGAUCUAGAACUAGACUGUGAUCUAGACUUGGAUCUUGAAGAAUGUGAUCUAGAAUUGGAGCGGCCCAUUUCUCAACAGAGGAUUGAGCAUCA
# B21: chr10:17279496:17279497:+_ENSG00000026025_ENST00000224237|hu_hu|FALSE|FALSE (ssRNA)
# RNA: GGGAGUUCUACAGUCCGACGAUCUUAAUGGUAUUCAAAAUACCUUUUAAAAAGUAUUCUAGCACAAGAUUUUUCUGUAAACUAGAUUAUGUUGUAAACUUUUUUCUAAAUCUUGUAGGAGUGUCGGUUGUUAAGAACUAGAGCCAACAGAGGAUUGAGCAUCA
# B22: 31918693_31919420_4223_CDS_ENSMUSG00000042323_ENSMUST00000112095|mouse|control|control (ssRNA)
# RNA: GGGAGUUCUACAGUCCGACGAUCAUCAUCUCCUCCUUCUAACUCUGCAAAUUUAGCUUCUAGCAAUUGUAUCUUCUUUUCUAACAAAGGUGAGGGUUCCUUCUGAGGAAUGAUUGGUUUUCUGAAGUAGUAGAUUUCAUCAUCCAACAGAGGAUUGAGCAUCA
# Biological target: T1, UNK ZnF1-3
# Experiment: nsRBNS (natural sequence RNA bind-n-seq); RBNS binding buffer (assumed for nsRBNS): 25 mM Tris pH 7.5, 150 mM KCl, 3 mM MgCl2, 0.01% Triton X-100, 500 ug/ml BSA, 20 U/ml SUPERase-In, 4 C; UNK is unkempt and MSI1 is Musashi-1; names of the RNAs are library labels; protein concentration not given here; high values mean tight binding
row,Binder,binding signal [enrichment R]
1,B1,1.47
2,B2,1.37
3,B3,1.91
4,B4,0.845
5,B5,0.728
6,B6,1.08
7,B7,1.58
8,B8,0.736
9,B9,1.12
10,B10,2.7
11,B11,1.62
12,B12,0.605
13,B13,1.08
14,B14,1.9
15,B15,1.32
16,B16,0.98
17,B17,1.39
18,B18,1.79
19,B19,1.27
20,B20,0.376
21,B21,0.816
22,B22,0.725
